Test results: the supplement of paper PMC8285479
Where a name gives a salt, the structure may show the parent alone. ± gives the standard deviation of the averaged measurements. In all, about 1,900 compounds were measured (“normalised cell viability (NPI; 0 = phenylarsine oxide control, 1 = DMSO control)”: median about 1, lowest 2% from about 0.039 on). The list shows a part of the results.

Tested on: NCI-H1944
Experiment: normalised cell viability (NPI; 0 = phenylarsine oxide control, 1 = DMSO control) (fraction of DMSO control); NCI-H1944 is a non-small cell lung cancer line; higher = more viable cells (less compound toxicity)
Conditions: 6 days
[1] = glucocorticoid arm: hydrocortisone 2.75 uM co-treatment, compound 1 µM
[2] = glucocorticoid arm: hydrocortisone 2.75 uM co-treatment, compound 5 µM
[3] = glucocorticoid arm: hydrocortisone 2.75 uM pre-treated 2 days and continued, compound 1 µM
[4] = glucocorticoid arm: hydrocortisone 2.75 uM pre-treated 2 days and continued, compound 5 µM
[5] = glucocorticoid arm: vehicle, compound 1 µM
[6] = glucocorticoid arm: vehicle, compound 5 µM
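Note: CTB read-out in 384-well plates, mean of triplicate wells, normalised per plate against 1 µM phenylarsine oxide and 0.1% DMSO, compounds added 24 h after seeding.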

| SMILES | normalised cell viability [1] | normalised cell viability [2] | normalised cell viability [3] | normalised cell viability [4] | normalised cell viability [5] | normalised cell viability [6] |
| --- | --- | --- | --- | --- | --- | --- |
| Cn1c(=O)c2[nH]c(C3CCCC3)nc2n(C)c1=O [8-Cyclopentyl-1,3-dimethylxanthine] | 1.01 ± 0.011 | 1.023 ± 0.0058 | 0.9963 ± 0.0055 | 1.01 | 1.002 ± 0.0068 | 0.9987 ± 0.0015 |
| CC(C)COCC(CN(Cc1ccccc1)c1ccccc1)N1CCCC1 (stereo not given) [Bepridil hydrochloride] | 0.997 ± 0.02 | 0.997 ± 0.043 | 1.007 ± 0.0058 | 1.03 ± 0.028 | 0.9957 ± 0.0075 | 1.003 ± 0.0061 |
| NC(=O)c1ncn([C@@H]2O[C@H](CO)[C@@H](O)[C@H]2O)n1 [Ribavirin] | 0.9713 ± 0.0084 | 0.9883 ± 0.0058 | 0.997 ± 0.04 | 0.973 ± 0.011 | 0.9797 ± 0.0067 | 0.9717 ± 0.0096 |
| O=C(NCc1ccncc1)C12CC3CC(C1)CC(c1ccc(Cl)cc1)(C3)C2 | 0.9823 ± 0.0023 | 0.882 ± 0.017 | 1 ± 0.014 | 0.889 ± 0.013 | 0.992 ± 0.022 | 1.01 |
| NS(=O)(=O)c1cc2c(cc1Cl)N=CNS2(=O)=O [Chlorothiazide] | 1.02 | 1.01 ± 0.014 | 1.006 ± 0.0063 | 1.01 ± 0.03 | 0.9877 ± 0.0038 | 0.9967 ± 0.0058 |
| COc1cc2ncnc(Oc3cccc(NC(=O)Nc4cc(C(C)(C)C(F)(F)F)on4)c3)c2cc1OC | 0.897 ± 0.022 | 1.05 ± 0.01 | 0.934 ± 0.0085 | 1.04 ± 0.021 | 0.9767 ± 0.0076 | 1.02 ± 0.011 |
| CN[C@H](CC(C)C)C(=O)N[C@H]1C(=O)N[C@@H](CC(N)=O)C(=O)N[C@H]2C(=O)N[C@H]3C(=O)N[C@H](C(=O)N[C@H](C(=O)O)c4cc(O)cc(O)c4-c4cc3ccc4O)[C@H](O)c3ccc(c(Cl)c3)Oc3cc2cc(c3O[C@@H]2O[C@H](CO)[C@@H](O)[C@H](O)[C@H]2O[C@H]2C[C@](C)(N)[C@H](O)[C@H](C)O2)Oc2ccc(cc2Cl)[C@H]1O [Vancomycin hydrochloride from Streptomyces orientalis] | 1.02 ± 0.01 | 1.02 ± 0.021 | 1.03 ± 0.035 | 1.02 ± 0.01 | 1.007 ± 0.0058 | 1.02 ± 0.011 |
| NCC(=O)Nc1ccc(-n2nc(C(F)(F)F)cc2-c2ccc3c(ccc4ccccc43)c2)cc1 | 1.03 ± 0.01 | 1.01 ± 0.027 | 1.02 ± 0.01 | 1.03 ± 0.021 | 1.01 | 0.9867 ± 0.009 |
| CCc1cncnc1N1CCN(Cc2nc3ccc(C(F)(F)F)cc3[nH]2)CC1 | 1.06 ± 0.015 | 1.11 ± 0.01 | 1.04 ± 0.015 | 1.06 ± 0.04 | 1.027 ± 0.0058 | 1.002 ± 0.0068 |
| NS(=O)(=O)c1cc(C(=O)O)c(NCc2ccco2)cc1Cl [Furosemide] | 1.002 ± 0.0076 | 0.9983 ± 0.0029 | 0.999 ± 0.011 | 0.995 ± 0.015 | 0.984 ± 0.002 | 0.9897 ± 0.0047 |
| NC(=S)c1ccc[n+]([C@@H]2O[C@@H](COP(=O)([O-])OP(=O)(O)OC[C@H]3O[C@@H](n4cnc5c(N)ncnc54)C(OP(=O)(O)O)[C@H]3O)C(O)C2O)c1 (stereo not given in full) [Thio-NADP sodium] | 1.013 ± 0.0058 | 1.01 ± 0.026 | 1.03 ± 0.021 | 0.998 ± 0.013 | 1.013 ± 0.0058 | 1.013 ± 0.0058 |
| CCn1nnc2c(N3CCOCC3)nc(-c3ccc(NC(=O)Nc4ccc(C(=O)N5CCN(C)CC5)cc4)cc3)nc21 | 0.201 ± 0.0067 | 0.375 ± 0.015 | 0.287 ± 0.01 | 0.543 ± 0.024 | 0.077 ± 0.01 | 0.22 ± 0.016 |
| O=C(O)CCC(=O)N1CCC[C@H]1C(=O)O [N-Succinyl-L-proline] | 1.01 | 1.01 ± 0.04 | 1.01 ± 0.032 | 1.01 ± 0.016 | 1.01 | 1.001 ± 0.0081 |
| N=C(N)NC(=O)c1nc(Cl)c(N)nc1N [Amiloride hydrochloride] | 0.9737 ± 0.006 | 0.966 ± 0.023 | 0.991 ± 0.0052 | 0.992 ± 0.025 | 0.9947 ± 0.0084 | 1.003 ± 0.0064 |
| CC(C)NCC(O)c1ccc(NS(C)(=O)=O)cc1 (racemic) [(±)-Sotalol hydrochloride] | 0.997 ± 0.011 | 0.995 ± 0.013 | 1.01 ± 0.026 | 0.98 ± 0.0046 | 0.9833 ± 0.0015 | 0.9843 ± 0.0046 |
| CN(C)C(=O)COC(=O)Cc1ccc(OC(=O)c2ccc(NC(=N)N)cc2)cc1 [Camostat Mesilate (FOY-305)] | 0.973 ± 0.0096 | 0.99 ± 0.034 | 0.9807 ± 0.0021 | 1.02 ± 0.026 | 0.9923 ± 0.0042 | 0.996 ± 0.013 |
| O=[N+]([O-])c1cccc2c(Br)[nH]nc12 [3-Bromo-7-nitroindazole] | 1.017 ± 0.0058 | 1.02 ± 0.027 | 1.01 | 1.01 ± 0.04 | 0.987 ± 0.0099 | 0.9907 ± 0.0081 |
| CC(C)C[C@@H]1NC(=O)[C@@H](C(C)C)NC(=O)[C@@H]2CCCN2C(=O)[C@@H](CC(=O)O)NC(=O)[C@@H](Cc2c[nH]c3ccccc23)NC1=O | 1.01 ± 0.014 | 1 ± 0.018 | 1.02 ± 0.025 | 1.003 ± 0.0061 | 0.9943 ± 0.005 | 1.013 ± 0.0058 |
| CCCCOc1c(C(=O)c2c(F)cc(C)cc2F)c[nH]c2nncc1-2 | 0.91 ± 0.018 | 0.988 ± 0.017 | 0.9857 ± 0.0032 | 1.02 ± 0.022 | 0.561 ± 0.04 | 0.861 ± 0.018 |
| COc1cccc(OC)c1OCCNCC1COc2ccccc2O1 (stereo not given) [WB-4101 hydrochloride] | 0.99 ± 0.005 | 0.9467 ± 0.0064 | 0.992 ± 0.016 | 0.998 ± 0.011 | 0.9793 ± 0.0011 | 0.98 ± 0.0036 |
| Nc1ccccc1NC(=O)c1ccc(CNC(=O)OCc2cccnc2)cc1 [Entinostat (MS-275)] | 1.05 ± 0.015 | 0.184 ± 0.004 | 1.023 ± 0.0058 | 0.302 ± 0.018 | 0.866 ± 0.026 | 0.02 ± 0.0035 |
| Nc1ccccc1NC(=O)c1ccc(CNC(=O)OCc2cccnc2)cc1 [Entinostat] | 0.925 ± 0.019 | 0.0313 ± 0.0074 | 0.962 ± 0.013 | 0.0766 ± 0.011 | 0.348 ± 0.03 | 0.00136 ± 0.00059 |
| O=C1NCN(c2ccccc2)C12CCN(CCCC(c1ccc(F)cc1)c1ccc(F)cc1)CC2 [Fluspirilene] | 1 ± 0.011 | 0.9263 ± 0.009 | 0.993 ± 0.018 | 1.01 ± 0.01 | 1 | 1.01 ± 0.01 |
| CC(=O)SCC[N+](C)(C)C [Acetylthiocholine chloride] | 0.9853 ± 0.0084 | 0.988 ± 0.011 | 0.991 ± 0.011 | 0.989 ± 0.014 | 0.977 ± 0.011 | 0.986 ± 0.007 |
| CN(C)CC[C@H](CSc1ccccc1)Nc1ccc(S(=O)(=O)NC(=O)c2ccc(N3CCN(Cc4ccccc4-c4ccc(Cl)cc4)CC3)cc2)cc1[N+](=O)[O-] | 0.99 ± 0.018 | 1.03 ± 0.015 | 0.994 ± 0.025 | 1.023 ± 0.0058 | 1.001 ± 0.009 | 0.926 ± 0.018 |
